Experimental data: PubChem BioAssay AID602233 (National Center for Advancing Translational Sciences (NCATS), 2012)
The campaign covered roughly 380,000 compounds. About 170 (0.045%) were called active. Inconclusive means that the source gave no clear call. Such entries were picked first, then a sample of the others. Calls come from the whole dose curve; as a rule, active = well fitted inhibition curve with a large enough effect; inconclusive = small, poorly fitted or top-dose-only effect; inactive = no such curve, though single readings can be large or run the other way. No potency is given beside an inconclusive call; the fits are too rough.

molecular target: Phosphoglycerate kinase, glycosomal (Trypanosoma brucei brucei) (UniProt P07378); assay: qHTS Assay to Find Inhibitors of Phosphoglycerate Kinase; details: PGK/GAPDH coupled, Kinase-Glo luminescence, 60 min; series mostly up to 57.5 µM; note: nearly all actives have a fitted effect of over 60% in size
Summary of the method: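 Luminescent ATP detection (Kinase-Glo Plus) follows a 60-minute room-temperature incubation, with wells lacking PGK as controls. Buffer: 100 mM TEA (pH 7.6), 5 mM MgCl2, 0.01% Tween-20. Coupling enzyme GAPDH (100 nM final) supplies unstable 1,3-BPG in-well.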
Potency is the fitted concentration of half-maximal effect; tags give direction and shape of the fitted curve.

Row | Compound | Potency
1 | COC(C[C@@H]1O[C@@H]1[C@H](O)[C@H](C)OCc1ccccc1)OC | inactive
2 | O=C(NNc1ccc(C(F)(F)F)cc1[N+](=O)[O-])c1ccc(NS(=O)(=O)c2ccc(F)cc2)cc1 | inconclusive [inhibitor, partial curve]
3 | CCCc1ccc(C(=O)O/N=C(\N)c2ccccn2)cc1 | inconclusive [inhibitor, partial curve]
4 | N#Cc1ccc(CSc2nnc(NC(=O)c3ccc4ncsc4c3)s2)cc1 | inconclusive [inhibitor, partial curve, poor fit]
5 | Cc1ccc(C(=O)O/N=C(\N)c2ccccn2)c(C)c1 | active: 15.8 µM
6 | Nc1ccc2c(O)cc(S(=O)(=O)O)cc2c1 | inconclusive [inhibitor, partial curve, poor fit]
7 | Cc1ccc(C(=O)Oc2ccc(Br)cc2C(=S)N2CCOCC2)cc1 | inactive
8 | CCOc1ccc(NC(=O)CN(C)S(=O)(=O)c2ccc(-c3ccc(=O)[nH]n3)s2)cc1 | inconclusive [inhibitor, single point]
9 | Cc1cc(C)n(-c2nc(NCC(C)O)c3c4c(sc3n2)COC(C)(C)C4)n1 (stereo unspecified) | inactive
10 | Cc1[nH]cnc1C(=O)N/N=C/c1c(Cl)cccc1Cl | inconclusive [inhibitor, partial curve, poor fit]
11 | Cc1nc(N2CCCCC2)sc1C(=O)c1ccc(SCCO)c([N+](=O)[O-])c1 | inactive
12 | COC1=C(Br)C(=O)c2nc(C)ccc2C1=O | inconclusive [inhibitor, single point]
13 | O=C(c1ccco1)N1CCN(c2nc3ccc(Cl)cc3s2)CC1 | inconclusive [inhibitor, single point]
14 | C=CCN1C=C/C(=C\C=C(C#N)C#N)c2ccccc21 | inconclusive [inhibitor, partial curve, poor fit]
15 | C[C@]12c3[nH]c4ccccc4c3CCN1C(=O)C(CC(=O)NCCN1CCOCC1)C[C@@H]2C(=O)N1CCOCC1 (stereo partly specified) | inactive
16 | COc1cc2c(cc1OC)C(COc1ccccc1OC)N(C(=O)c1ccc(S(=O)(=O)N3CCCC3)cc1)CC2 (stereo unspecified) | inactive
17 | COc1ccc(/C=N/Nc2nccnc2Cl)cc1 | inconclusive [inhibitor, partial curve, poor fit]
18 | C=C(C)C(=O)Nc1ccc(OC(F)(F)C(F)F)c(NC(=O)C(=C)C)c1 | inconclusive [inhibitor, partial curve, poor fit]
19 | NNc1nc2c(Cl)ccc(Cl)c2s1 | inconclusive [inhibitor, partial curve]
20 | CNS(=O)(=O)c1cccc(C(=O)OCC(=O)c2ccc[nH]2)c1 | inactive
21 | C[C@H](CO)N1C[C@H](C)[C@@H](CN(C)C(=O)c2ccc3c(c2)OCO3)Oc2cc(/C=C/c3ccccc3)ccc2S1(=O)=O | inactive
22 | N#C/C(=C/c1cccn1-c1cccc(C(=O)O)c1)c1ccc(Cl)cc1 | inconclusive [inhibitor, single point]

Row | Compound | Potency
23 | CNC(=S)N/N=C/c1ccc(-c2ccc(C(=O)O)cc2)o1 | inconclusive [inhibitor, partial curve, poor fit]
24 | CN(C)CCCN(C(=O)c1ccco1)c1nc2ccc(Br)cc2s1 | inactive
25 | O=[N+]([O-])/C=C/c1ccc2c(ccn2Cc2ccccc2)c1 | inconclusive [inhibitor, partial curve, poor fit]
26 | CC(=O)c1c(C)oc(C)c1CSCc1ccc(C(=O)O)o1 | inconclusive [inhibitor, partial curve, poor fit]
27 | COc1cc(CNCCc2ccccc2)cc(Br)c1OCC(=O)Nc1ccccc1C | inactive
28 | Cc1c(Cl)c(C(F)F)nn1CC(=O)NC1C(=O)N2C(C(=O)O)=C(CSc3nnnn3C)CSC12 (stereo unspecified) | inconclusive [inhibitor, single point]
29 | CCc1ccn2cc(-c3ccc4c(c3)OCO4)nc2c1 | inconclusive [inhibitor, partial curve, poor fit]
30 | O=C(Cc1ccccc1)N/N=C/c1cccnc1 | inactive
31 | CC(=O)c1ccc(NC(=O)c2ccn[nH]2)cc1 | inconclusive [inhibitor, single point]
32 | CCOc1ccc(N(CC(=O)Nc2ccc(F)c(F)c2)S(=O)(=O)c2c(C)noc2C)cc1 | inconclusive [inhibitor, partial curve, poor fit]
33 | O=C(COc1ccc(/C=N/NC(=O)c2ccc(O)cc2)cc1)Nc1cccc([N+](=O)[O-])c1 | inconclusive [inhibitor, full curve, poor fit]
34 | COC(=O)C1CCN(C(=O)c2cc(-c3ccco3)nc3ccccc23)CC1 | inconclusive [inhibitor, partial curve, poor fit]
35 | Clc1cccc(OCCn2ccnc2)c1 | inactive
36 | COc1cccc2c1NC(C(=O)O)C1CC=CC21 (stereo unspecified) | inconclusive [inhibitor, partial curve, poor fit]
37 | CC(=O)NCCc1nc2cc(NS(=O)(=O)c3ccc(Cl)cc3)ccc2n1C | inactive
38 | CC(C(=O)Nc1ccc(C(=O)O)c(O)c1)N1C(=O)/C(=C\c2ccco2)SC1=S (stereo unspecified) | inconclusive [inhibitor, partial curve]
39 | CN(C)S(=O)(=O)c1cccc(-c2nn(-c3ccccc3)cc2/C=C2\SC(=S)NC2=O)c1 | inconclusive [inhibitor, partial curve, poor fit]
40 | Cc1ccc(S(=O)(=O)Cc2ccc(C(=O)O)o2)cc1 | inconclusive [inhibitor, partial curve, poor fit]
41 | O=C(c1c(F)cccc1F)N1CCN(CCOc2ccccc2)CC1 | inactive
42 | CCN(Cc1ccccc1)S(=O)(=O)c1ccc(C(=O)N2CCN(c3nc4ccccc4s3)CC2)cc1 | inactive
43 | COc1ccc(S(=O)(=O)c2cnc(SCC(=O)Nc3cc(F)ccc3C)[nH]c2=O)cc1Cl | inconclusive [inhibitor, partial curve, poor fit]
44 | Cc1noc(C)c1COC(=O)c1ccccc1Sc1ccccc1C#N | inactive

Row | Compound | Potency
45 | CSc1ccc(Cl)c(C(=O)OCC(=O)NCc2ccco2)c1 | inconclusive [inhibitor, partial curve]
46 | O=C(NCc1ccco1)c1cc2c(s1)CSC2 | inconclusive [inhibitor, single point]
47 | O=C(/C(=N/N=C/c1ccc(O)c(O)c1O)c1ccccc1)c1ccccc1 | inactive
48 | COC(=O)c1ccc(-c2nc3ccc(C)cc3o2)cc1 | inactive
49 | Oc1c(C=Nc2ccccc2)sc2ccccc12 | inconclusive [inhibitor, single point]
50 | CCn1cc(-c2cc(C(F)(F)F)n3nc(C(=O)O)cc3n2)c(C)n1 | inconclusive [inhibitor, partial curve, poor fit]
51 | O=c1cc2oc3cc(O)c(O)cc3c(-c3ccccc3[N+](=O)[O-])c-2cc1O | inconclusive [inhibitor, full curve, poor fit]
52 | CC(=O)Nc1ccc(S(=O)(=O)Nc2nc3ccccc3nc2Nc2ccc(C(=O)O)c(O)c2)cc1 | inconclusive [inhibitor, partial curve, poor fit]
53 | O=C(Nc1ccc(F)cc1F)c1noc2c1CCC2 | inconclusive [inhibitor, partial curve]
54 | O=C(CCc1nnc2ccc(NCc3ccco3)nn12)Nc1ccccn1 | inconclusive [inhibitor, partial curve, poor fit]
55 | CCc1cccc(CC)c1N(COC)C(=O)Cn1c(C)nc2ccccc21 | inconclusive [inhibitor, single point]
56 | O=C(Nc1ccc(S(=O)(=O)N2CCOCC2)cc1)c1ccc(=O)[nH]c1 | inconclusive [inhibitor, partial curve, poor fit]
57 | c1ccc2nc(-c3nc4ccccc4o3)ccc2c1 | inconclusive [inhibitor, partial curve, poor fit]
58 | Cc1cc(N2CCC(C)CC2)nc(SCC(=O)c2ccccc2)n1 | inactive
59 | O=C1NN(c2ccc(Cl)c(Cl)c2)C(=O)/C1=C/c1ccc(-c2ccccc2C(=O)O)o1 | inconclusive [inhibitor, partial curve, poor fit]
60 | CCOC(=O)N1CCc2c(sc3c2c(=O)n(Cc2ccccc2)c(=O)n3Cc2cccc(Cl)c2)C1 | inactive
61 | CCC(NC(=O)CN1CCN(C(=O)c2cccs2)CC1)c1ccc(C)cc1 (stereo unspecified) | inactive
62 | COc1ccccc1C(=O)Nc1nc2ccccc2s1 | inconclusive [inhibitor, partial curve]
63 | CCOC(=O)Cc1[nH]nc2c1C(C1C=CCCC1)C(C#N)=C(N)O2 (stereo unspecified) | inconclusive [inhibitor, partial curve, poor fit]
64 | Cc1cccc(C(=O)Nc2ccc(N3CCC(CCN4CCOCC4)CC3)c(C(=O)O)c2)c1 | inconclusive [inhibitor, partial curve]
65 | COc1ccc2[nH]c3c(=O)n(CCCCC(=O)N4CCCC4)c(=S)[nH]c3c2c1 | inconclusive [inhibitor, single point]
66 | CSc1ccc(/C=C/C(=O)Nc2ccccc2)cc1 | inconclusive [inhibitor, partial curve, poor fit]
